About 31,000 (8.9%) of roughly 350,000 compounds were called active. This list was built around the results that the source calls inconclusive (neither active nor inactive); the mix of calls is not that of the screen. Calls come from the whole dose curve; as a rule, active = well fitted inhibition curve with a large enough effect; inconclusive = small, poorly fitted or top-dose-only effect; inactive = no such curve, though single readings can be large or run the other way. Where the call is inconclusive, the potency comes from a doubtful curve fit.
Target: Histone-lysine N-methyltransferase EHMT2 (Homo sapiens) (UniProt Q96KQ7)
Assay: qHTS Assay for Inhibitors of Histone Lysine Methyltransferase G9a; note: nearly all actives have a fitted effect of over 75% in size
Conditions: G9a H3K9 monomethylation, AlphaScreen, 2 h; activity, negative = inhibition: at 59 µM (top of the series) unless noted
Outline: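 Enzyme 20 nM + cpd, 15 min RT; add b-H3K9 pep 500 nM / SAM 20 uM; 2 h RT; anti-H3K9me1 Ab 0.5 ug/mL + SA donor / anti-rabbit acceptor beads 20 ug/mL each, 10 min; AlphaScreen read.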
% is set by controls: 0 for no effect and ±100 for the full control effect; potency is the fitted concentration of half-maximal effect; tags give direction and shape of the fitted curve.

Chain of UniProt Q96KQ7 (Q96KQ7 whole entry, looked up): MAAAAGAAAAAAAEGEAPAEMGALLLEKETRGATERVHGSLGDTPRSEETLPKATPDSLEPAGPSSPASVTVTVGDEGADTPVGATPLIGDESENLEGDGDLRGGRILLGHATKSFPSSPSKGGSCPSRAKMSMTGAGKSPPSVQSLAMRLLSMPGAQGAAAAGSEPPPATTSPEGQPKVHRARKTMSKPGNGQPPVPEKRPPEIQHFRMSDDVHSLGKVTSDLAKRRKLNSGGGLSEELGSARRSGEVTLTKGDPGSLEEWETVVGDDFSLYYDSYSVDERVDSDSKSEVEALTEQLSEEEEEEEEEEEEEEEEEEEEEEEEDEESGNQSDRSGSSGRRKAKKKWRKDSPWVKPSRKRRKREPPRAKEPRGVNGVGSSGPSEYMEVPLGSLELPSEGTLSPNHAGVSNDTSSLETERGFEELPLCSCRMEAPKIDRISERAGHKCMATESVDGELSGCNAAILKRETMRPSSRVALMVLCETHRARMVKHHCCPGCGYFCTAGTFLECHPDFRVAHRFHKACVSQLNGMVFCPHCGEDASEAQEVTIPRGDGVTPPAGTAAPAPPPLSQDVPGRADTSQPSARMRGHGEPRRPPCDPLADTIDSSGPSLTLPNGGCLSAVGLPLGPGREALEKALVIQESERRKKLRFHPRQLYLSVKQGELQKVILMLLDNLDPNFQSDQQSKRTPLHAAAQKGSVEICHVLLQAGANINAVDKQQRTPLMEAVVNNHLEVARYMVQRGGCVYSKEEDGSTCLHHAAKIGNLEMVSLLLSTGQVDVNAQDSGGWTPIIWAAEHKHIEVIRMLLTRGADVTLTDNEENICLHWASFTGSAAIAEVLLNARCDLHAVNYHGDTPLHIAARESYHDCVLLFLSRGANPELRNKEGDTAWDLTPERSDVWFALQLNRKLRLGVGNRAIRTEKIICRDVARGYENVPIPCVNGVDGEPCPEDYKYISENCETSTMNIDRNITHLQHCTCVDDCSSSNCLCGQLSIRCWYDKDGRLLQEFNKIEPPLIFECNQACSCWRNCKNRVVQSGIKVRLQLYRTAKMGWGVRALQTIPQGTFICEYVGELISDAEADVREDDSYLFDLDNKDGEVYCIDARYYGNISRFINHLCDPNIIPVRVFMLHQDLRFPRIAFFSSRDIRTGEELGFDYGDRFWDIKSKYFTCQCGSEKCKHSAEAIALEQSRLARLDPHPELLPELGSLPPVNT

Row | Structure (SMILES) | activity, negative = inhibition | Potency
1 | O=C(COc1ccccc1F)NCC(c1ccc(F)cc1)N1CCOCC1 (configuration not stated) | inconclusive: -81.5% [inhibitor] [at 0.0925 µM] | 
2 | O=C(O)c1nc(-c2ccccc2)n(-c2ccccc2)n1 |  | inconclusive: 28.2 µM [inhibitor, single point]
3 | CCn1c(SCC(=O)c2cc(C)n(C)c2C)nnc1-c1ccccc1 |  | inconclusive: 89.1 µM [inhibitor, single point]
4 | CCC(C)N(C(=O)CSc1nc2ccc(OC)cc2[nH]1)C1CCS(=O)(=O)C1 (configuration not stated) |  | active: 39.8 µM
5 | CCCCN1CC(c2nc3ccccc3n2CCCCOc2ccc(C)cc2C)CC1=O (configuration not stated) |  | inactive
6 | COc1cc(C(C(=O)NCc2ccccc2)N(C(=O)c2snc(C(N)=O)c2N)C2CCCC2)cc(OC)c1OC (configuration not stated) |  | inconclusive: 70.8 µM [inhibitor, single point]
7 | COc1ccccc1C(=O)NC(=O)COC(=O)c1ccc(C)o1 |  | inconclusive: 79.4 µM [inhibitor, single point]
8 | COc1ccc(N2CCN(C(c3ccccc3)c3sc4nc(C)nn4c3O)CC2)cc1 (configuration not stated) | inconclusive: -82.5% [inhibitor] | 
9 | CCOC(=O)[C@H]1[C@H]2COc3ccc(Cl)cc3[C@@H]2N2C(=O)c3cc(C)ccc3NC(=O)[C@@]12C | inactive: 28% [at 2.33 µM] | 
10 | O=C(OCCN1CCCC1)C1(c2ccccc2)CCCC1 |  | inconclusive: 39.8 µM [inhibitor, single point]
11 | COc1ccc(N(C(=O)CCl)C(C(=O)NCCc2ccccc2)c2cccs2)cc1Cl (configuration not stated) |  | inconclusive: 89.1 µM [inhibitor, single point]
12 | CCCn1c(C)cc(C(=O)COc2ccc(-c3nnco3)cc2)c1C |  | inconclusive: 89.1 µM [inhibitor, partial curve, poor fit]
13 | Cc1c(Cl)cccc1NC(=O)CCCn1nc(C)c2sc3ccccc3c2c1=O |  | inconclusive: 39.8 µM [inhibitor, partial curve, poor fit]
14 | Cc1ccc(-n2ncc3c(NCc4ccco4)ncnc32)cc1C |  | inconclusive: 89.1 µM [inhibitor, partial curve, poor fit]
15 | COCCCNC(=O)NC(CCC(C)C)c1c(-n2cccc2)sc2c1CCN(C)C2 (configuration not stated) |  | inconclusive: 25.1 µM [inhibitor, partial curve, poor fit]
16 | COc1cc(/C=C2/C(=O)NN(c3cccc(F)c3)C2=O)ccc1OC(=O)c1ccco1 |  | active: 28.2 µM
17 | Cc1nnc(C)n1-c1ccc(C(=O)Nc2cccc(Br)c2)cc1 |  | inactive
18 | CCN1CCN(C(=O)c2ccccc2NC(=O)c2ccc(Cl)cc2)CC1 |  | active: 44.7 µM
19 | COc1cc(-c2nc(-c3ccc4c(c3)-c3ccccc3S4(=O)=O)c(-c3ccccc3)[nH]2)cc(OC)c1O |  | inconclusive: 39.8 µM [inhibitor, single point]
20 | O=C(c1cc(Cl)cc(Cl)c1)N1CCN(c2cc(C(F)(F)F)nc3ccccc23)CC1 |  | inconclusive: 50.1 µM [inhibitor, partial curve]
21 | O=C1OCCN1C(=O)[C@H]1[C@H](c2ccc([N+](=O)[O-])cc2)C(c2ccc(F)cc2)=NN1c1ccc(Br)cc1 |  | inconclusive: 14.1 µM [inhibitor, single point]

Row | Structure (SMILES) | activity, negative = inhibition | Potency
22 | CCCCCC(=O)N1CCN(S(=O)(=O)c2ccc3c(c2)OCCCO3)CC1 |  | inconclusive: 89.1 µM [inhibitor, partial curve, poor fit]
23 | CCc1cc(C(=O)c2ccccc2)c(N)s1 |  | inconclusive: 79.4 µM [inhibitor, single point]
24 | CN(C)S(=O)(=O)c1cccc(-c2csc(=Nc3ccccc3)n2CCCN2CCOCC2)c1 |  | active: 50.1 µM
25 | CCOC(=O)c1cnc(SCC(=O)c2ccc3c(c2)OCCO3)nc1N | inconclusive: -63.4% [inhibitor] | 
26 | Cc1ccc(SCCN2CCN(C)CC2)cc1 |  | active: 50.1 µM
27 | CCOC(=O)/C(N=Nc1ccc(C(=O)O)cc1[N+](=O)[O-])=C(\C)O |  | inconclusive: 79.4 µM [inhibitor, partial curve, poor fit]
28 | NC(=O)CC(NC(=O)c1ccc(Br)cc1)c1ccc(NCCc2ccc(F)cc2)c([N+](=O)[O-])c1 (configuration not stated) | inactive: 0.968% [at 12.7 µM] | 
29 | O=[N+]([O-])c1ccccc1S(=O)(=O)N1CCN(Cc2ccccc2)CC1 |  | active: 79.4 µM
30 | C/C(Cn1nnc([N+](=O)[O-])n1)=N\NC(=O)c1ccc(O)cc1O |  | inactive
31 | O=C(N/N=C\c1ccc(F)cc1)c1csnn1 |  | active: 1.58 µM
32 | CN(C)c1ccc(C(=O)Nc2ccc(CN3CCS(=O)(=O)CC3)cc2)cc1 |  | inconclusive: 89.1 µM [inhibitor, single point]
33 | Cc1cc(OCC(=O)Nc2ccc(S(=O)(=O)N3CCN(C)CC3)cc2)ccc1Cl |  | inconclusive: 39.8 µM [inhibitor, single point]
34 | COc1ccc(N2CCN(CCNC(=O)Nc3ccc(C)cc3Cl)CC2)cc1 |  | inconclusive: 89.1 µM [inhibitor, single point]
35 | Cc1cc(C)nc(SCC(=O)N/N=C/c2cc(C)n(-c3ccccc3C)c2C)n1 |  | active: 50.1 µM
36 | O=c1[nH]c(=S)c2c(n1-c1ccccc1)CCC2 | inconclusive: -70.5% [inhibitor] | 
37 | Cc1ccc(NC(=S)NNC(=O)Nc2ccccc2)cc1 |  | inconclusive: 44.7 µM [inhibitor, partial curve, poor fit]
38 | COc1ccc(-c2nc3ccccc3s2)cc1O | inconclusive: -59% [inhibitor] | 
39 | O=C1c2ccccc2C(Nc2ccc3c(c2)OCCO3)N1Cc1ccc2c(c1)OCO2 (configuration not stated) |  | inconclusive: 31.6 µM [inhibitor, single point]
40 | COCCNc1nnc(SCC(=O)N2CCN(S(=O)(=O)c3ccccc3)CC2)s1 |  | inconclusive: 89.1 µM [inhibitor, single point]
41 | CN(C)c1ccc(CN(C(=O)c2ccco2)C2CCS(=O)(=O)C2)cc1 (configuration not stated) |  | inconclusive: 56.2 µM [inhibitor, partial curve]
42 | CCC(CC)=NNc1cccc([N+](=O)[O-])c1 |  | inconclusive: 28.2 µM [inhibitor, single point]

From PubChem BioAssay AID504332 (National Center for Advancing Translational Sciences (NCATS), 2011)
